Assay results published in publication PMC12434519 (ACS Medicinal Chemistry Letters, 2025).

Biological target: SARS-CoV-2 NSP14 (Severe acute respiratory syndrome coronavirus 2, UniProt P0DTD1)
Test: biochemical
[1] = LUM % inhibition, read-out: SARS-CoV-2 NSP14 inhibition: IC50
[2] = LUM % inhibition, read-out: SARS-CoV-2 NSP14 inhibition: Maximum response
[3] = fit of concentration-response curve
[4] = Hill slope of the concentration-response fit
[5] = maximum response, LUM % inhibition, read-out: SARS-CoV-2 NSP14 inhibition: Maximum response (%)
[6] = read-out: SARS-CoV-2 NSP14 inhibition: IC50
[7] = Merged IC50 (µM), TDI-015051 series, retrospective VS set, biochemical MTase assay
[8] = TDI-015051 series, retrospective VS set, biochemical MTase assay, read-out: Merged IC50
[9] = TDI-015051 series, retrospective VS set, biochemical MTase assay, read-out: Merged pIC50 (converted)

| SMILES | IC50 [1] | Emax [2] | SARS-CoV-2 NSP14 inhibition: Hill slope [3] | SARS-CoV-2 NSP14 inhibition: Hill slope [4] | Emax [5] | IC50 [6] | also measured |
| --- | --- | --- | --- | --- | --- | --- | --- |
| Cc1ccc(F)c(C(=O)NCCc2ccc(CNC(=O)c3cnc4[nH]ncc4c3)cc2)c1F [RU-0834096] | 17.5 µM | 35.2% | 0.973 |  |  |  |  |
| Cn1cc(N2CC(C(=O)NCCc3noc4ccccc34)CC2=O)cn1 (centres unmarked) [RU-0833925] | > 125 µM | 19.2% | 1.26 |  |  |  |  |
| COc1ccc2nc([C@@H](C)NC(=O)c3cccc(CS(=O)(=O)c4ccccc4)c3)[nH]c2c1 [RU-0833636] |  |  |  | 1.22 | 9.22% | > 62.5 µM |  |
| O=C(NCc1ccc(C(=O)NC2CC2C2CCCC2)cc1)c1ccc(O)c(F)c1 (centres unmarked) [RU-0834120] | > 125 µM | 15.8% | 13.8 |  |  |  |  |
| O=C(NC[C@H]1C[C@@H]1CNC(=O)c1cccc2cc[nH]c12)c1ccc2cn[nH]c2c1 [RU-0833671] |  |  |  | 0.653 | 18.1% | > 62.5 µM |  |
| Cc1c(S(=O)(=O)N2CCc3[nH]ncc3C2)cc(C(=O)N[C@@H]2CCN(c3ccc(C#N)cn3)C2)n1C [TDI-017304, Cc1c(S(=O)(=O)N2CCc3[nH]ncc3C2)cc(C(=O)N[C@@H]2CCN(c3ccc(C#N)cn3)C2)n1C] |  |  |  |  |  |  | IC50 [7]: 0.000146 µM |
| O=C(NCC1CCC2(CN(C(=O)c3ccc(O)cc3F)C2)O1)c1nccn2ccnc12 (centres unmarked) [RU-0834085] | > 125 µM | 19.7% | 57.4 |  |  |  |  |
| COc1ccc(C(=O)NCc2nnc3ccccn23)cc1S(=O)(=O)NCc1ccc(Cl)cc1 [RU-0833666] |  |  |  | 9.74 | 1.7% | > 62.5 µM |  |
| Cc1c(F)cccc1C(=O)NC1CCC(CCNC(=O)c2ncn3ccccc23)C1 (centres unmarked) [RU-0834123] | > 125 µM | 9.59% | 56.9 |  |  |  |  |
| O=C(NC[C@]1(O)C[C@H](NC(=O)c2cccc3cc(O)ccc23)C1)c1ccc(F)cc1 [RU-0833680] |  |  |  | 0.0871 | 0.636% | > 62.5 µM |  |
| CN(CC(=O)Nc1ccnn1Cc1ccncc1)S(=O)(=O)c1ccc2ccccc2c1 [RU-0833669] |  |  |  | 0.475 | 9.76% | > 62.5 µM |  |
| CCc1nnc(-c2cccc(NC(=O)CCn3c(=O)n(C)c4ccccc43)c2)o1 [RU-0833629] |  |  |  | 20.1 | -0.0216% | > 62.5 µM |  |
| CN(C)S(=O)(=O)c1cccc(NC(=O)CCCn2c(=O)oc3ccccc32)c1 [RU-0833648] |  |  |  | 11.8 | 0.276% | > 62.5 µM |  |
| C=CCOc1ccccc1CNC(=O)c1cc(S(=O)(=O)N2CCn3nccc3C2)c(C)n1CC=C [TDI-014250, C=CCOc1ccccc1CNC(=O)c1cc(S(=O)(=O)N2CCn3nccc3C2)c(C)n1CC=C] |  |  |  |  |  |  | IC50 [8]: 0.175 µM |
| Cc1c(S(=O)(=O)n2ncc3ccccc32)cc(C(=O)NCc2c(F)ccc3occc23)n1C [TDI-015687, Cc1c(S(=O)(=O)n2ncc3ccccc32)cc(C(=O)NCc2c(F)ccc3occc23)n1C] |  |  |  |  |  |  | IC50 [8]: 0.958 µM |
| CN(Cc1ccccc1)S(=O)(=O)c1ccc(Cl)c(C(=O)NCc2nc3ccccc3n2C)c1 [RU-0833907] | > 125 µM | 13.8% | 62.9 |  |  |  |  |
| O=C(Cc1c[nH]c2nccc(Cl)c12)NCc1ccccc1-n1cc(CN2CCCC2=O)nn1 [RU-0833679] |  |  |  | 27.2 | -0.0529% | > 62.5 µM |  |
| O=C(Cc1ccc2c(c1)CCC2)Nc1cccc(S(=O)(=O)N2CCCC2)c1 [RU-0833897] | > 125 µM | 6.86% | 12 |  |  |  |  |
| Cc1cc(C(=O)N2C[C@@H]3[C@@H](CNC(=O)c4cnc5ncccn45)[C@@H]3C2)cc2cn[nH]c12 [RU-0834153] | > 125 µM | 23.8% | 0.968 |  |  |  |  |
| Cc1cc(F)cc(CC(=O)NCC2COC(CNC(=O)c3n[nH]c4cc(C)ccc34)C2)c1 (centres unmarked) [RU-0834199] | > 125 µM | 12.1% | 51 |  |  |  |  |
| Cc1c(S(=N)(=O)c2ccccc2)cc(C(=O)NCc2cccc3cnn(C)c23)n1C (centres unmarked) [TDI-015861, Cc1c(S(=N)(=O)c2ccccc2)cc(C(=O)NCc2cccc3cnn(C)c23)n1C] |  |  |  |  |  |  | IC50 [8]: 0.176 µM; IC50 [9]: 0.174 µM |
| CN(c1ccccc1)S(=O)(=O)c1cccc(NC(=O)Cc2nn(C)c(=O)c3ccccc23)c1 [RU-0833684] |  |  |  | 48.1 | -0.611% | > 62.5 µM |  |
| COc1ccc(CCNC(=O)c2ccc(C)c(S(=O)(=O)Nc3ccccc3)c2)cc1OC [RU-0833944] | > 125 µM | 16.4% | 1.54 |  |  |  |  |
| Cc1cccc(S(=O)(=O)c2ccc(=O)n(CC(=O)NCc3ccccc3Cl)n2)c1 [RU-0833884] | > 125 µM | 15.1% | 333 |  |  |  |  |

| SMILES | IC50 [1] | Emax [2] | SARS-CoV-2 NSP14 inhibition: Hill slope [3] | SARS-CoV-2 NSP14 inhibition: Hill slope [4] | Emax [5] | IC50 [6] | also measured |
| --- | --- | --- | --- | --- | --- | --- | --- |
| Cc1nccn1-c1cc(CNC(=O)[C@H]2CC(=O)N(c3cccc(C(F)(F)F)c3)C2)ccn1 [RU-0833654] |  |  |  | 20.9 | -1.03% | > 62.5 µM |  |
| O=C(Cc1c(F)cccc1F)Nc1cccc(CNC(=O)c2ccc3[nH]ncc3c2)c1 [RU-0834086] | > 125 µM | 37.3% | 0.332 |  |  |  |  |
| Cc1c(S(=O)(=O)N2Cc3c[nH]nc3[C@H](CO)C2)cc(C(=O)NCc2c(F)ccc3cnn(C)c23)n1C [TDI-015496, Cc1c(S(=O)(=O)N2Cc3c[nH]nc3[C@H](CO)C2)cc(C(=O)NCc2c(F)ccc3cnn(C)c23)n1C] |  |  |  |  |  |  | IC50 (Merged pIC50, TDI-015051 series, retrospective VS set, biochemical MTase assay): 0.00309 µM |
| CC(=O)N1CCN(S(=O)(=O)c2ccc(C(=O)NC3CCSc4c(F)cccc43)cc2)CC1 (centres unmarked) [RU-0833916] | > 125 µM | 8.86% | 9.15 |  |  |  |  |
| C[C@@H](NC(=O)c1cccc(NC(=O)c2cccnc2)c1)c1ccc(C(F)(F)F)cc1 [RU-0833653] |  |  |  | 0.711 | 38.2% | > 62.5 µM |  |
| Cc1c(CO)cccc1C(=O)NCc1cccc2c1CN(C(=O)c1cc(CCO)on1)C2 [RU-0834097] | > 125 µM | 20.2% | 1.42 |  |  |  |  |
| O=C(NCc1c(F)ccc2cnn(C3CC3)c12)c1ccc(Cl)c(S(=O)(=O)N2CCc3[nH]ncc3C2)c1 [TDI-016152, O=C(NCc1c(F)ccc2cnn(C3CC3)c12)c1ccc(Cl)c(S(=O)(=O)N2CCc3[nH]ncc3C2)c1] |  |  |  |  |  |  | IC50 [8]: 0.000249 µM |
| Cc1sc(C(=O)NCc2cccc3cnn(C)c23)cc1S(=O)(=O)N1CCn2nccc2C1 [TDI-014534, Cc1sc(C(=O)NCc2cccc3cnn(C)c23)cc1S(=O)(=O)N1CCn2nccc2C1] |  |  |  |  |  |  | IC50 [9]: 0.0324 µM |
| Cc1nn(C)c(C)c1CCNC(=O)CCn1nc2ccccn2c1=O [RU-0833883] | > 125 µM | 13.5% | 0.113 |  |  |  |  |
| CN=S(=O)(c1cc(Cl)c2[nH]ncc2c1)c1cc(C(=O)NCc2c(F)ccc3c2N(C)C(=O)C3)n(C)c1C (centres unmarked) [TDI-016654, CN=S(=O)(c1cc(Cl)c2[nH]ncc2c1)c1cc(C(=O)NCc2c(F)ccc3c2N(C)C(=O)C3)n(C)c1C] |  |  |  |  |  |  | IC50 [8]: 0.000651 µM |
| Cc1cc(C(=O)NCC2(C)CCC(NC(=O)c3cnn4ccn(C)c34)C2)cc(C)c1O (centres unmarked) [RU-0834107] | > 125 µM | 10.9% | 84 |  |  |  |  |
| CC(CNC(=O)c1nc(CCS(=O)(=O)c2ccc(Cl)cc2)no1)c1ccccc1 (centres unmarked) [RU-0386434] |  |  |  | 12.1 | 10.8% | > 125 µM |  |
| COc1cccn2ncc(C(=O)NC[C@@H]3C[C@H]3CNC(=O)c3ccc(C)c(C)c3)c12 [RU-0833943] | > 125 µM | 7.75% | 2.12 |  |  |  |  |
| O=C(NCCC1CN(C(=O)[C@H]2CCCC[C@H]2F)C1)c1c(F)cc(O)cc1F [RU-0833677] |  |  |  | 0.24 | 2.48% | > 62.5 µM |  |
| O=C(Cc1cccc2c1CCC2)NCc1ccccc1CNC(=O)c1ccc2[nH]ncc2c1 [RU-0834087] | > 125 µM | 14.6% | 264 |  |  |  |  |
| COc1ccccc1CNC(=O)c1cccc(S(=O)(=O)N2CCc3ccccc3C2)c1 [TDI-013767, COc1ccccc1CNC(=O)c1cccc(S(=O)(=O)N2CCc3ccccc3C2)c1] |  |  |  |  |  |  | IC50 [8]: 0.824 µM |
| O=C(NCCC12CCC1CN(C(=O)c1cccc(CO)c1)C2)c1n[nH]c2ccccc12 (centres unmarked) [RU-0834145] | > 125 µM | 11% | 20.5 |  |  |  |  |
| Cc1nn(C)c(C)c1S(=O)(=O)Nc1cccc(CCc2nc3ccccc3n2C)c1 [RU-0381274] |  |  |  | 35.7 | 15.8% | > 125 µM |  |
| Nc1ncnc2c1ncn2C1OC(CC(N)CCC(N)C(=O)O)C(O)C1O (centres unmarked) [RU-0425548] |  | 101% | 0.841 |  |  |  |  |
| O=C(NCC1COc2ccccc2O1)c1cccc(S(=O)(=O)N2CCc3ccccc32)c1 (centres unmarked) [RU-0833900] | > 125 µM | 10.3% | 108 |  |  |  |  |
| Cc1c(S(=O)(=O)c2cc(Cl)c3[nH]ncc3c2)cc(C(=O)NCc2ccnn2C)n1C [TDI-016469, Cc1c(S(=O)(=O)c2cc(Cl)c3[nH]ncc3c2)cc(C(=O)NCc2ccnn2C)n1C] |  |  |  |  |  |  | IC50 [8]: 0.000596 µM |
| O=C(NCc1nnc2ccccn12)c1ccc(Cl)c(S(=O)(=O)N2CCCCCC2)c1 [RU-0833912] |  |  |  | 0.803 | 40.2% | > 62.5 µM |  |
| Cc1c(S(=O)(=O)c2ccc3[nH]nc(F)c3c2)cc(C(=O)NCc2c[nH]c(=O)c3cccnc23)n1C [TDI-016647, Cc1c(S(=O)(=O)c2ccc3[nH]nc(F)c3c2)cc(C(=O)NCc2c[nH]c(=O)c3cccnc23)n1C] |  |  |  |  |  |  | IC50 [7]: 0.00332 µM |
| Cc1ccc(F)cc1C(=O)NCC(C)C1(O)CCN(C(=O)c2cc(C)c3[nH]ncc3c2)C1 (centres unmarked) [RU-0834172] | > 125 µM | 11.6% | 18.1 |  |  |  |  |

Like-named read-outs stand apart in the source and are kept apart here.
